The other results are listed elsewhere or left out.
Key:
Assay in all cases: glycan array binding signal (z-score within array); higher = stronger binding
Settings in all cases: glycan notation: IUPAC condensed, linker removed
[1] = target: GalNAc(b1-4)GlcNAc(b1-2)Man
Method in brief: (§1)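 Glycan array data were curated from 3228 arrays in the Consortium for Functional Glycomics database and kept only where the protein sequence was available. Glycan names were converted to IUPAC-condensed notation, and columns mapping to the same glycan were averaged. The binding signal is a within-array Z-score, averaged across arrays of the same protein sequence at different concentrations or buffers and across linkers. Negative Z-scores can be read as non-binding.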

[2] = target: GalNAc(b1-4)GlcNAc(b1-2)Man(a1-3)[GalNAc(b1-4)GlcNAc(b1-2)Man(a1-6)]Man(b1-4)GlcNAc(b1-4)GlcNAc
Method in brief: as §1

[3] = target: GalNAc(b1-4)GlcNAc(b1-3)GalNAc(b1-4)GlcNAc
Method in brief: as §1

[4] = target: GalNAc(b1-4)GlcNAc6S
Method in brief: as §1

[5] = target: GalNAc(b1-6)GalNAc
Method in brief: as §1

[6] = target: GalNAc3S(b1-4)GlcNAc
Method in brief: as §1

[7] = target: GalNAc3S(b1-4)GlcNAc3S
Method in brief: as §1

[8] = target: GalNAc3S(b1-4)[Fuc(a1-3)]GlcNAc
Method in brief: as §1

[9] = target: GalNAc4S6S(b1-4)GlcNAc
Method in brief: as §1

[10] = target: GalNAc6S(b1-4)GlcNAc
Method in brief: as §1

[11] = target: Glc(a1-4)Glc
Method in brief: as §1

[12] = target: Glc(a1-4)Glc(a1-4)Glc(a1-4)Glc
Method in brief: as §1

[13] = target: Glc(a1-6)Glc(a1-6)Glc
Method in brief: as §1

[14] = target: Glc(a1-6)Glc(a1-6)Glc(a1-6)Glc
Method in brief: as §1

[15] = target: Glc(b1-4)Glc
Method in brief: as §1

[16] = target: Glc(b1-6)Glc
Method in brief: as §1

[17] = target: GlcA(b1-3)Gal
Method in brief: as §1

[18] = target: GlcA(b1-3)GlcNAc
Method in brief: as §1

[19] = target: GlcA(b1-6)Gal
Method in brief: as §1

[20] = target: GlcA3S(b1-3)Gal(b1-4)GlcNAc(b1-2)Man
Method in brief: as §1

[21] = target: GlcA3S(b1-3)Gal(b1-4)GlcNAc(b1-3)Gal(b1-4)Glc
Method in brief: as §1

[22] = target: GlcNAc(a1-3)Gal(b1-4)GlcNAc
Method in brief: as §1

[23] = target: GlcNAc(a1-4)Gal(b1-3)GlcNAc
Method in brief: as §1

[24] = target: GlcNAc(a1-4)Gal(b1-4)GalNAc
Method in brief: as §1

[25] = target: GlcNAc(a1-4)Gal(b1-4)GlcNAc
Method in brief: as §1

[26] = target: GlcNAc(a1-4)Gal(b1-4)GlcNAc(b1-3)Gal(b1-4)Glc
Method in brief: as §1

[27] = target: GlcNAc(a1-4)Gal(b1-4)GlcNAc(b1-3)Gal(b1-4)GlcNAc
Method in brief: as §1

[28] = target: GlcNAc(a1-4)Gal(b1-4)GlcNAc(b1-3)Gal(b1-4)GlcNAc(b1-3)Gal(b1-4)GlcNAc
Method in brief: as §1

[29] = target: GlcNAc(a1-4)Gal(b1-4)GlcNAc(b1-3)Gal(b1-4)[Fuc(a1-3)]GlcNAc(b1-3)Gal(b1-4)[Fuc(a1-3)]GlcNAc
Method in brief: as §1

[30] = target: GlcNAc(a1-6)Gal(b1-4)GlcNAc
Method in brief: as §1

[31] = target: GlcNAc(b1-2)Gal(b1-3)GalNAc
Method in brief: as §1

[32] = target: GlcNAc(b1-2)Man(a1-3)[GlcNAc(b1-2)Man(a1-6)]Man(b1-4)GlcNAc(b1-4)GlcNAc
Method in brief: as §1

[33] = target: GlcNAc(b1-2)Man(a1-3)[GlcNAc(b1-2)Man(a1-6)]Man(b1-4)GlcNAc(b1-4)[Fuc(a1-6)]GlcNAc
Method in brief: as §1

[34] = target: GlcNAc(b1-2)Man(a1-3)[GlcNAc(b1-4)][GlcNAc(b1-2)Man(a1-6)]Man(b1-4)GlcNAc(b1-4)GlcNAc
Method in brief: as §1

[35] = target: GlcNAc(b1-2)Man(a1-3)[GlcNAc(b1-4)][GlcNAc(b1-2)Man(a1-6)]Man(b1-4)GlcNAc(b1-4)[Fuc(a1-6)]GlcNAc
Method in brief: as §1

[36] = target: GlcNAc(b1-2)[GlcNAc(b1-4)]Man(a1-3)[GlcNAc(b1-2)Man(a1-6)]Man(b1-4)GlcNAc(b1-4)GlcNAc
Method in brief: as §1

[37] = target: GlcNAc(b1-2)[GlcNAc(b1-4)]Man(a1-3)[GlcNAc(b1-4)][GlcNAc(b1-2)Man(a1-6)]Man(b1-4)GlcNAc(b1-4)GlcNAc
Method in brief: as §1

[38] = target: GlcNAc(b1-2)[GlcNAc(b1-4)]Man(a1-3)[GlcNAc(b1-4)][GlcNAc(b1-2)[GlcNAc(b1-6)]Man(a1-6)]Man(b1-4)GlcNAc(b1-4)GlcNAc
Method in brief: as §1

[39] = target: GlcNAc(b1-2)[GlcNAc(b1-4)]Man(a1-3)[GlcNAc(b1-4)][GlcNAc(b1-2)[GlcNAc(b1-6)]Man(a1-6)]Man(b1-4)GlcNAc(b1-4)[Fuc(a1-6)]GlcNAc
Method in brief: as §1

[40] = target: GlcNAc(b1-2)[GlcNAc(b1-6)]Man(a1-6)[GlcNAc(b1-2)Man(a1-3)]Man(b1-4)GlcNAc(b1-4)GlcNAc
Method in brief: as §1

[41] = target: GlcNAc(b1-2)[GlcNAc(b1-6)]Man(a1-6)[GlcNAc(b1-2)Man(a1-3)]Man(b1-4)GlcNAc(b1-4)[Fuc(a1-6)]GlcNAc
Method in brief: as §1

[42] = target: GlcNAc(b1-2)[GlcNAc(b1-6)]Man(a1-6)[GlcNAc(b1-4)][GlcNAc(b1-2)Man(a1-3)]Man(b1-4)GlcNAc(b1-4)GlcNAc
Method in brief: as §1

[43] = target: GlcNAc(b1-3)Fuc
Method in brief: as §1

[44] = target: GlcNAc(b1-3)Gal
Method in brief: as §1

[45] = target: GlcNAc(b1-3)Gal(b1-3)GalNAc
Method in brief: as §1

B1: LngA (Escherichia coli) (protein)
chain: MLSVYNRTQKFKAEARKKIAKYHELRKQRGMSLLEVIIVLGIIGTIAAGVVILAQRAFDSRAVTDLVTNTNTVRVRMKDAYQRDGKYPDFVDPLSLTANTIKTDTSGIPAAQLVQLGKITPDEVRNNISGDFIAIGGALTSNGAQVKKGFAIELNGLSQEQCRSILGQVGNNWEYVAIGTSASGSYAMTATGVDMSVAASTTVLRSLGNNGQTTLTADKILSTCTAQVNSITLGSR
glycan array binding signal (z-score) [1]: 0.194 | glycan array binding signal (z-score) [2]: -0.153 | glycan array binding signal (z-score) [3]: -0.431 | glycan array binding signal (z-score) [4]: -0.467 | glycan array binding signal (z-score) [5]: -0.538 | glycan array binding signal (z-score) [6]: -0.507 | glycan array binding signal (z-score) [7]: -0.494 | glycan array binding signal (z-score) [8]: -0.315 | glycan array binding signal (z-score) [9]: -0.449 | glycan array binding signal (z-score) [10]: -0.007 | glycan array binding signal (z-score) [11]: 0.436 | glycan array binding signal (z-score) [12]: -0.132 | glycan array binding signal (z-score) [13]: 0.075 | glycan array binding signal (z-score) [14]: 0.139 | glycan array binding signal (z-score) [15]: 0.718 | glycan array binding signal (z-score) [16]: 0.811 | glycan array binding signal (z-score) [17]: -0.018 | glycan array binding signal (z-score) [18]: -0.475 | glycan array binding signal (z-score) [19]: 0.408 | glycan array binding signal (z-score) [20]: -0.387 | glycan array binding signal (z-score) [21]: -0.286 | glycan array binding signal (z-score) [22]: -0.546 | glycan array binding signal (z-score) [23]: -0.412 | glycan array binding signal (z-score) [24]: -0.157 | glycan array binding signal (z-score) [25]: -0.505 | glycan array binding signal (z-score) [26]: -0.545 | glycan array binding signal (z-score) [27]: -0.601 | glycan array binding signal (z-score) [28]: -0.459 | glycan array binding signal (z-score) [29]: 0.38 | glycan array binding signal (z-score) [30]: -0.521 | glycan array binding signal (z-score) [31]: -0.458 | glycan array binding signal (z-score) [32]: -0.403 | glycan array binding signal (z-score) [33]: -0.224 | glycan array binding signal (z-score) [34]: -0.263 | glycan array binding signal (z-score) [35]: -0.532 | glycan array binding signal (z-score) [36]: -0.462 | glycan array binding signal (z-score) [37]: -0.517 | glycan array binding signal (z-score) [38]: -0.476 | glycan array binding signal (z-score) [39]: -0.632 | glycan array binding signal (z-score) [40]: -0.408 | glycan array binding signal (z-score) [41]: -0.315 | glycan array binding signal (z-score) [42]: -0.563 | glycan array binding signal (z-score) [43]: -0.408 | glycan array binding signal (z-score) [44]: -0.497 | glycan array binding signal (z-score) [45]: 0.147

From the supplement of paper PMC8728848
